# Laboratory results: article PMC4336329 (PLoS ONE, 2015)
# Among all 310,000 compounds or so, about 2,200 (0.71%) showed an effect of 50% or more. Effects have a minus sign here. This is one part of the list.
# Molecular target: human ether-à-go-go-related gene (hERG) potassium channel (human, UniProt Q12809)
# Test: primary screen, population patch clamp on CHO cells stably expressing hERG
# Sequence of human ether-à-go-go-related gene (hERG) potassium channel (Q12809 whole entry, looked up): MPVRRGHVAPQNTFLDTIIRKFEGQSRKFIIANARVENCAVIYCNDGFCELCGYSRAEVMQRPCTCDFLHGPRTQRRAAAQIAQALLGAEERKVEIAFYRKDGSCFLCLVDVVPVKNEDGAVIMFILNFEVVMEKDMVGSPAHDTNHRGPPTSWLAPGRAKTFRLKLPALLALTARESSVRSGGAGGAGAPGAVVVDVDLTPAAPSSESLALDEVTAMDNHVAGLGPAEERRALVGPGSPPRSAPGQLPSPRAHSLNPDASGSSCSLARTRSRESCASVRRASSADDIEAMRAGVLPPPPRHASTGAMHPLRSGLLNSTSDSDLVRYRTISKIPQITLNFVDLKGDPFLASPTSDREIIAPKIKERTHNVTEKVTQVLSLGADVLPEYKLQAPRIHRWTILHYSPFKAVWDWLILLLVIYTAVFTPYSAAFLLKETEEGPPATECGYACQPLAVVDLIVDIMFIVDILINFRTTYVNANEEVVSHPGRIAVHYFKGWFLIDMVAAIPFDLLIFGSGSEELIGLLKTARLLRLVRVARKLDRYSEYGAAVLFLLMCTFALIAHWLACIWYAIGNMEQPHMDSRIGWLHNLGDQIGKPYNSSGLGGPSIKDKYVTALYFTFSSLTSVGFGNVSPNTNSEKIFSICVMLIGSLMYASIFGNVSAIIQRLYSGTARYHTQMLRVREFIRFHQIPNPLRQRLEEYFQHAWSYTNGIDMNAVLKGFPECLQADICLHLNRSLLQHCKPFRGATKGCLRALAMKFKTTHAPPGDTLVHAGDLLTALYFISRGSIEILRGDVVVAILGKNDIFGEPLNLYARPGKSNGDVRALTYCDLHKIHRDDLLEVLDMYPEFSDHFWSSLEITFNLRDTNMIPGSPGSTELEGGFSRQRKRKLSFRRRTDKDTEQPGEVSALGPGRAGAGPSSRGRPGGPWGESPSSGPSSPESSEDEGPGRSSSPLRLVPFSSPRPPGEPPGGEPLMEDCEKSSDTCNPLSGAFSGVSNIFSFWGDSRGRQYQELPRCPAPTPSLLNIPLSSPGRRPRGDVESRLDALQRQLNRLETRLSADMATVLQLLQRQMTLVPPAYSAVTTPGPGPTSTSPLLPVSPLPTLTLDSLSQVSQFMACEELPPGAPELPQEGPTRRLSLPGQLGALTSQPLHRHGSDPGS
row,Compound,"hERG current change (%, negative = inhibition) at 1uM [%]"
1,COc1ccccc1CCNC(=O)Cn1ccc2cc(S(=O)(=O)N3CCCC3)ccc21,31.8
2,O=C(COc1ccccc1F)NNC(=O)c1ccc(N2CCCCC2)c([N+](=O)[O-])c1,-7.47
3,CC(C)(C)c1cc(NC(=O)c2cccc([N+](=O)[O-])c2)no1,2.5
4,CC1=C(C#N)C(c2ccoc2)C(C(=O)OCc2ccccc2)=C(N)S1 (stereo not drawn),13.5
5,COc1cc(NC(=S)N2CCN(C/C=C/c3ccccc3)CC2)cc(OC)c1,10
6,O=C(NCc1ccccc1)c1csc(-c2cccnc2)n1,6.75
7,COc1cc(C(Nc2ccc3c(c2)OCO3)C(=O)NC2CCCCC2)cc(OC)c1OC (stereo not drawn),-7.09
8,CCc1cccc(C)c1NC(=O)CCCC(=O)O,18.1
9,CC(C)CCN(C(=O)c1csnn1)C(C(=O)NC1CCCC1)c1ccccc1 (stereo not drawn),2.94
10,O=C(Nc1ccc(Cl)cc1)Nc1nnc(CSc2ccc(Cl)cc2)s1,-5.41
11,Cc1ccc(S(=O)(=O)Nc2ccccc2-c2nc3ccccc3[nH]c2=O)cc1,-2.57
12,COc1cc(CSc2nc(-c3ccccc3)cc(=O)[nH]2)cc(OC)c1,10.4
13,CC1Cc2cc(S(=O)(=O)N3CCC(C(=O)N4CCN(c5ccccc5F)CC4)CC3)ccc2N1C(=O)C1CC1 (stereo not drawn),8.82
14,COc1ccc([C@H]2CC(=O)C=C(c3ccnc4ccc(Cl)cc34)C2)cc1,-19.2
15,O=C(NC1CCCCC1)c1cc(S(=O)(=O)N2CCOCC2)ccc1Cl,6.31
16,NC(=O)C1=C[C@@H](c2ccc(Br)cc2)C[C@@H](OCCCCO)O1,7.17
17,COc1cccc(N=NC2C(=O)N(C(N)=S)N=C2C)c1 (stereo not drawn),6.71
18,CCc1cc2c(=O)[nH]c(Cc3ccc(OC)cc3)nc2s1,1.88
19,Cc1cc2oc(=O)cc(C)c2cc1NC(=O)CCC(=O)O,5.11
20,CCOc1ccc2nc(NC(=O)CSc3nc4c(c(=O)n(C)c(=O)n4C)n3CC)sc2c1,9.1
21,C=CCSc1nc(C)c(CCCC)c(=O)[nH]1,6.77
22,CC(=O)NNc1cc(=O)c2c(=O)n(C)c(=O)n(C)c2[nH]1,7.25
23,O=C(COC(=O)c1cccc(S(=O)(=O)N2CCc3ccccc3C2)c1)NCc1ccco1,-9.43
24,Cc1[nH]nc(NNC(=O)c2ccccc2)c1[N+](=O)[O-],12.3
